The source gives no read counts; variants with many changes may rest on few reads.
B1: LINE1-mini (parent)
chain: GGCAGAGCUCAACACAGCGUGGCAAAGUGGCUGUGGCUAGACUGCC

Variants of: B1
Experiment: self-cleavage, relative activity (ratio to wild type); higher = more cleavage; in vitro, sequencing; the parent is a self-cleaving ribozyme

Variant | self-cleavage
G2U A26C G29C A41U | 0.09
C3A A24C C46A | 0.08
C3A A6U C42A U43A | 1.52
C3A A12G A16U G27A | 0.62
C3A A4C G19U G29U | 0.13
G2U A14U G21C G33C G35U | 0.01
G2U C15G G22A A39U U43C | 0
G2U G40C U43A | 0.05
G2U U9G C10A C13A A14C | 0.02
C3A A6U A24U G27U | 0.98
G2U U9G G19A U38A C42A G44A | 0
G2U A39U U43A | 0.03
G2U G30A U38A | 0.03
G2U C13G G21U | 0.02
C3A A6G A12U C15U A16U C31A | 0.04
G2U C3G A41C | 0.12
G2U G7A G36A | 0.11
G2U C8G U9A U20A | 0.04
G2U G17U C18G U20C G21A | 0.04
G2U C18A A24G G36U C45U | 0.02
G2U G7U G19A G21A G29C U34C | 0
G2U A16C G19U G30A U34A | 0.01
G2U C13U A14C G21C G27C G30A G33A | 0.03
G2U U9G C15U G29A | 0.05

Variant | self-cleavage
G2U C13U U43C | 0
G2U G19U C31A | 0.01
C3A A6U A24C | 0.1
G2U G5A G21U C23U G35C G40C | 0.08
C3A A4C C8G U20C G36A C37U U38C | 0.02
C3A A6C C8A G21A C23G U28C C45G | 0.26
G2U A24U U32C G35U | 0.05
G2U G27A C31G | 0.01
C3A A12C G19U G29C | 0.05
C3A A11U A39C | 0.02
G2U C18A U43G C45G | 0.01
G2U C18A G21U | 0
G2U C18G U28A C37A C42G | 0.01
G2U C10A A11G | 0.01
G2U U20G G21U C31A | 0.02
G2U C8U U9A G30U | 0.04
G2U G7U C18G U28A C31U U32G G40A | 0.03
G2U C15A U38G | 0.03
C3A A6G G7C | 0.07
G2U A12G G21C A24U C31A | 0.03
G2U G21U G29U | 0.09
G2U A14G G19A G27A G36A A39C C45A | 0.03
G2U C13G C15G A25U G33C | 0.02
G2U C8G U20G | 0.1

Variant | self-cleavage
G2U G7U G17A G40U | 0.04
G2U A11C U28C C31G | 0.01
G2U C10U C18U A26U | 0.02
G2U A16C G27U U34A | 0.02
C3A A6G A24G | 0.42
C3A A4C G19C G27C A39G C46G | 0.01
C3A A16G G27U U28G | 0.11
C3A A12C A14U G29C | 0.03
C3A A11U G17A C18G G33U U34A | 0.05
G2U U9C A41U | 0.02
G2U U32G G44A | 0.02
C3A A6G C31G | 0.02
C3A A11G C31G | 0.02
G2U U9A C15A | 0.05
C3A A6U C15A U32A A39U | 0.06
C3A A24U A25G G36C | 0.09
C3A A4G C8U G40A G44U | 0.09
C3A A4C G19C G30A G36C | 0.13
G2U C8A U9G A24C A26U | 0.05
G2U A24U G44A | 0.19
G2U C13A G44U | 0.04
G2U G5U C46U | 0.03
G2U C8G C23U | 0.02
C3A A24G U43G | 1.88

Variant | self-cleavage
C3A A4U A24U | 1.73
C3A A16G G22C | 0.03
G2U U20G G21U | 0.08
G2U C23U A24G A26U A41U G44A C45A | 0.01
G2U G5C A16U C18A G33C | 0.01
G2U A24G G27A U38G | 0.01
G2U C15G G17C A25U | 0.02
G2U U9A C18U C23U | 0.02
G2U U20G U34C | 0.06
G2U C15A G17U G21C U38G | 0.02
C3A A4G A12G G21C G22A U28G | 0.01
G2U C13U C31U | 0.02
C3A A6U U9A | 0.93
G2U A14U A16U | 0.01
G2U A14U A16G | 0.01
G2U C13U C23A C45U | 0.02
C3A A12C G29C C31G G40A C42U | 0.01
G2U A16U A25G G27C U32C | 0.04
C3A A4G C8A C10G A26C C31G G35A | 0.01
C3A A6G G21U A26G | 0.33
G2U U20C G22U G36A | 0.02
C3A A16U G29U A41G | 0.18
C3A A4U A6U | 0.1
G2U G27U C45G | 0.03

Variant | self-cleavage
C3A A6C C15A G30A G35U | 0.07
G2U G17A G33A C45A | 0.01
C3A A6U G7C C8U G22A G29C | 0.14
C3A A14G A25U C46U | 0.12
G2U C13U G21U C45U | 0.05
G2U A24G G40A | 0.06
G2U G17A G22U G29A C31A | 0.07
G2U C10G A11C G30U G35C C45G | 0
G2U C15G C37U C45U | 0.01
G2U C3G A12U A26C A41G | 0.04
G2U C10U A26G U28C G33A | 0.01
G2U C15G C18A G19U | 0.05
G2U G5U G17C G21C C37A | 0.04
G2U C18G G33C A39U C46A | 0.01
C3A A14C G19C G27C G40U | 0.03
G2U C8U A25G A26U U34A G35A C42A | 0.06
G2U C13U A16C C18G C42U | 0.01
G2U C13G A14C | 0.02
G2U G5C A6G C10U G27A G36A | 0.02
C3A A14C G29A G44U | 0.14
G2U C3U G17A G21U U43G C46A | 0.02
G2U C15G G33C | 0.02
G2U C31A U34A | 0.03
G2U G17C G35A | 0.01

Variant | self-cleavage
G2U A24C C31U A39G | 0
G2U C3G A11U | 0.02
C3A A6C G7C U32G | 0.07
G2U C8G A12C A25G | 0.01
C3A A4U G44U | 0.44
G2U C3U U9C G19U G21U G29C C31U | 0.01
G2U G17U C46A | 0
G2U G5A G27U A39U C46G | 0.04
C3A A4G G17A G44C | 0.02
C3A A4C U43A | 0.14
G2U C15U G17U G33U | 0.02
C3A A4U G21U C23A U32G C37G | 0.08
G2U C18G A24G | 0
G2U C3U G21C C37U | 0.02
G2U G5C G44C C45A | 0.01
C3A A4U C10A G22A U43A | 0.02
G2U G19U U38A | 0.13
G2U C3G C13U A14U A25G C42A | 0.06
G2U C10G U28A U38C | 0.02
G2U C10G G19A U28G U43C | 0.01
G2U C10G G30A C31G | 0.01
G2U G7A G27U C31G | 0.02
C3A A4G G33A C42U | 0.1
G2U C23G A39G | 0.02

Variant | self-cleavage
G2U G5U C42G | 0.03
G2U G22U G33U G44A | 0.03
G2U C8G C13G A24U G30U C42G | 0.03
G2U G7U G44C | 0.04
G2U G30A C37A C42U | 0
G2U A12C G35A | 0.04
G2U G17A G44U | 0.03
G2U C3G G22A | 0.35
G2U C8G A12U C13A | 0.03
G2U G7C G22U | 0.04
C3A A12U C18U | 0.61
G2U C15G A25U G27A U38G | 0.01
C3A A11C C13A C42G | 0.03
G2U A39C G40A | 0.05
G2U A16C C37A | 0.02
G2U G5A C8U A41G | 0.06
C3A A4G C13A C18U A25G G36A | 0.07
G2U C15U C45A | 0.14
G2U C23A G30C A39C | 0.03
G2U C23G U43C | 0.05
G2U G21A A25U G27A A41G | 0.02
C3A A4U G19A G21A G27C U43A | 0.21
G2U C8G A26U | 0.04

Source: the RNAGym collection of RNA variant scans (doi:10.7554/elife.90254)
